In the supplement of paper PMC4967469:
By IC50 is meant the dose at which the fit gives 50% viability; where the fit passes the top or lowest dose, that dose stands as a limit. The AUC spans the tested range (256-fold, ending at the top dose) of the same fit: 1 means no effect, lower means more sensitive. For part of these data: An inferred top dose was calculated from the reported fits.

Legend:
Assay in all cases: Viability of human cancer cell lines after 72 h of drug (GDSC screen)
Doxorubicin = compound: COc1cccc2c1C(=O)c1c(O)c3c(c(O)c1C2=O)C[C@@](O)(C(=O)CO)C[C@@H]3O[C@H]1C[C@H](N)[C@H](O)[C@H](C)O1 [Doxorubicin]; details: top dose 1.024 µM
Procedure: (§1)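 Human cancer cell lines in 384-well plates, medium with 10% serum, drug for 72 h over a 256-fold dose range (nine 2-fold or five 4-fold steps up to the top dose). Adherent lines were fixed and stained with the nucleic acid dye Syto60, suspension lines read with resazurin; signal relative to control wells, capped at 0 and 100%. One two-parameter sigmoid per drug and line, fitted in a mixed model over all curves with the slope shared within a line.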

17-AAG = compound: C=CCNC1=C2C[C@@H](C)C[C@H](OC)[C@H](O)[C@@H](C)/C=C(\C)[C@H](OC(N)=O)[C@@H](OC)/C=C\C=C(/C)C(=O)NC(=CC1=O)C2=O [17-AAG]; details: top dose 1 µM
Procedure: as §1

UNC1215 = compound: O=C(c1ccc(C(=O)N2CCC(N3CCCC3)CC2)c(Nc2ccccc2)c1)N1CCC(N2CCCC2)CC1 [UNC1215]; details: top dose 1 µM; top dose inferred
Procedure: as §1

TG101348 = compound: Cc1cnc(Nc2ccc(OCCN3CCCC3)cc2)nc1Nc1cccc(S(=O)(=O)NC(C)(C)C)c1 [TG101348]; details: top dose 10.24 µM
Procedure: as §1

VX-11e = compound: Cc1cnc(Nc2ccc(F)cc2Cl)nc1-c1c[nH]c(C(=O)N[C@H](CO)c2cccc(Cl)c2)c1 [VX-11e]; details: top dose 5.12 µM; top dose inferred
Procedure: as §1

Dimethyloxalylglycine = compound: COC(=O)CNC(=O)C(=O)OC [Dimethyloxalylglycine]; details: top dose 4000 µM; top dose inferred
Procedure: as §1

BMX-IN-1 (QL-XII-61) = compound: C=CC(=O)Nc1cc(-n2c(=O)ccc3cnc4ccc(-c5ccc(NS(C)(=O)=O)cc5)cc4c32)ccc1C [BMX-IN-1 (QL-XII-61)]; details: top dose 10 µM; top dose inferred
Procedure: as §1

Vismodegib = compound: CS(=O)(=O)c1ccc(C(=O)Nc2ccc(Cl)c(-c3ccccn3)c2)c(Cl)c1 [Vismodegib]; details: top dose 10 µM; top dose inferred
Procedure: as §1

BIX02189 = compound: CN(C)Cc1cccc(N=C(c2ccccc2)c2c(O)[nH]c3cc(C(=O)N(C)C)ccc23)c1 [BIX02189]; details: top dose 20 µM; top dose inferred
Procedure: as §1

CCT018159 = compound: CCc1cc(-c2n[nH]c(C)c2-c2ccc3c(c2)OCCO3)c(O)cc1O [CCT018159]; details: top dose 10 µM; top dose inferred
Procedure: as §1

OSI-027 = compound: COc1cccc2cc(-c3nc([C@H]4CC[C@H](C(=O)O)CC4)n4ncnc(N)c34)[nH]c12 [OSI-027]; details: top dose 20 µM
Procedure: as §1

Row | Cell Line | AUC (Doxorubicin) | IC50 (Doxorubicin) [µM] | AUC (17-AAG) | IC50 (17-AAG) [µM] | AUC (UNC1215) | IC50 (UNC1215) [µM] | AUC (TG101348) | IC50 (TG101348) [µM] | AUC (VX-11e) | IC50 (VX-11e) [µM] | AUC (Dimethyloxalylglycine) | IC50 (Dimethyloxalylglycine) [µM] | AUC (BMX-IN-1 (QL-XII-61)) | IC50 (BMX-IN-1 (QL-XII-61)) [µM] | AUC (Vismodegib) | IC50 (Vismodegib) [µM] | AUC (BIX02189) | IC50 (BIX02189) [µM] | AUC (CCT018159) | IC50 (CCT018159) [µM] | AUC (OSI-027) | IC50 (OSI-027) [µM]
1 | ES6 (Ewing sarcoma, adherent) | 0.656 | 0.194 | 0.928 | > 1 | 0.978 | > 1 | 0.869 | > 10.2 | 0.972 | > 5.12 | 0.736 | 1410 | 0.828 | 8.23 | 0.982 | > 10 | 0.94 | > 20 | 0.902 | > 10 | 0.717 | 6.03
2 | ES1 (Ewing sarcoma, adherent) | 0.274 | 0.0147 | 0.931 | > 1 | 0.985 | > 1 | 0.561 | 0.934 | 0.954 | > 5.12 | 0.729 | 1110 | 0.975 | > 10 | 0.972 | > 10 | 0.894 | > 20 | 0.923 | > 10 | 0.158 | 0.114
3 | MC-CAR (haematopoietic neoplasm, suspension) | 0.452 | 0.048 | 0.937 | > 1 | 0.982 | > 1 | 0.471 | 0.538 | 0.914 | > 5.12 | 0.614 | 495 | 0.792 | 4.01 | 0.989 | > 10 | 0.848 | 12.5 | 0.84 | 5.83 | 0.153 | 0.126
4 | EW-7 (Ewing sarcoma, semi-adherent) | 0.388 | 0.0329 | 0.973 | > 1 | 0.986 | > 1 | 0.78 | 3.69 | 0.959 | > 5.12 | 0.667 | 684 | 0.845 | 5.95 | 0.971 | > 10 | 0.851 | 12.5 | 0.989 | > 10 | 0.2 | 0.187
5 | ATN-1 (T-cell lymphoblastic leukaemia, suspension) | 0.493 | 0.0613 | 0.723 | 0.256 | 0.986 | > 1 | 0.561 | 0.928 | 0.959 | > 5.12 | 0.667 | 702 | 0.842 | 6.36 | 0.963 | > 10 | 0.931 | > 20 | 0.863 | 7.73 | 0.374 | 0.575
6 | DMS-114 (small cell lung carcinoma, adherent) | 0.772 | 0.454 | 0.934 | > 1 | 0.983 | > 1 | 0.854 | 10.1 | 0.965 | > 5.12 | 0.813 | 2580 | 0.966 | > 10 | 0.985 | > 10 | 0.939 | > 20 | 0.938 | > 10 | 0.233 | 0.183
7 | A101D (melanoma, adherent) | 0.456 | 0.0474 | 0.779 | 0.51 | 0.978 | > 1 | 0.981 | > 10.2 | 0.841 | 4.83 | 0.467 | 199 | 0.936 | > 10 | 0.852 | > 10 | 0.961 | > 20 | 0.957 | > 10 | 0.981 | > 20
8 | NOS-1 (osteosarcoma, adherent) | 0.54 | 0.0846 | 0.86 | > 1 | 0.977 | > 1 | 0.341 | 0.208 | 0.957 | > 5.12 | 0.657 | 760 | 0.977 | > 10 | 0.916 | > 10 | 0.789 | 11.1 | 0.876 | > 10 | 0.235 | 0.174
9 | FTC-133 (thyroid, adherent) | 0.72 | 0.288 | 0.621 | 0.14 | 0.982 | > 1 | 0.896 | > 10.2 | 0.978 | > 5.12 | 0.797 | 2100 | 0.977 | > 10 | 0.951 | > 10 | 0.986 | > 20 | 0.858 | 9.58 | 0.979 | > 20
10 | NMC-G1 (glioma, adherent) | 0.484 | 0.0574 | 0.716 | 0.298 | 0.978 | > 1 | 0.803 | 6.5 | 0.949 | > 5.12 | 0.58 | 435 | 0.87 | > 10 | 0.978 | > 10 | 0.895 | > 20 | 0.913 | > 10 | 0.527 | 1.5
11 | Farage (B-cell lymphoma, suspension) | 0.31 | 0.021 | 0.937 | > 1 | 0.988 | > 1 | 0.799 | 3.93 | 0.719 | 1.17 | 0.486 | 231 | 0.838 | 5.1 | 0.988 | > 10 | 0.969 | > 20 | 0.945 | > 10 | 0.109 | 0.0984
12 | MFE-280 (endometrium, adherent) | 0.905 | > 1.02 | 0.888 | > 1 | 0.98 | > 1 | 0.839 | 9.9 | 0.903 | > 5.12 | 0.611 | 549 | 0.959 | > 10 | 0.982 | > 10 | 0.888 | > 20 | 0.981 | > 10 | 0.345 | 0.411
